# Measured values published in PubChem BioAssay AID651820 (National Center for Advancing Translational Sciences (NCATS), 2012).
# “And” between values parts separate entries of the source, which are not always exact repeats. Identical values can stand only once. Out of some 340,000 compounds screened, about 12,000 (3.5%) were called active. This list was built around the results that the source calls inconclusive (neither active nor inactive); the mix of calls is not that of the screen. Calls follow the shape of the dose curve; as a rule, active = well fitted inhibition curve with a large enough effect; inconclusive = small, poorly fitted or top-dose-only effect, or another doubt; inactive = no such curve, though single readings can be large or run the other way. A potency beside an inconclusive call is a rough fit, not a confirmed value.
# Experiment: qHTS Assay for Inhibitors of Hepatitis C Virus (HCV)
# Conditions: Huh7.5.1 HCVcc-Cre (HCVcc is cell-culture hepatitis C virus) infection, luciferase reporter, 44 h; activity change, negative = inhibition: at 41.8 µM (top of the series)
# Summary of the method: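 1,000 cells/well; 4 h culture; + compound; + HCVcc-Cre (~0.5 moi); 44 h; luciferase substrate, RT 15 min; read 15 sec.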
# % is scaled to controls: 0 for no effect and ±100 for the full control effect; potency is read from the fitted curve at half-maximal effect; tags tell the direction and shape of the fitted curve.
SMILES,Potency,"activity change, negative = inhibition"
O=C1C(Cc2ccccc2)Nc2ncnc(N3CCOCC3)c2N1Cc1ccc(Br)cc1 (centres undefined),"inconclusive: 11.2 µM [inhibitor, partial curve]",
COc1cccc(CNC(=O)CCS(=O)(=O)Cc2ccc(C)cc2)c1,,inactive: -8.49%
COCCC(=O)N1CCCC(C(=O)c2ccc(C(F)(F)F)cc2)C1 (centres undefined),,inactive: 8.23%
CN(C)CCCN(C(=O)CCOc1ccccc1)c1nc2c(F)cccc2s1,"inconclusive: 22.4 µM [inhibitor, single point]",
CC(=O)Nc1ccc(NC(=O)CCc2c(C)noc2C)cc1,"inconclusive: 5.62 µM [inhibitor, single point]",
CCC(C)NC(=O)C1CCN(c2nc(OC)nc(OC)n2)CC1 (centres undefined),"inconclusive: 2.82 µM [inhibitor, single point]",
O=C(CNc1ccccc1-c1ccccc1)NCc1ccccc1,,inactive: 10.5%
C=CCn1cnc2scc(-c3ccccc3)c2c1=O,"inconclusive: 22.4 µM [inhibitor, single point]",
O=C1NN(c2ccccc2)C(=O)/C1=C\c1cccc(OC(=O)c2cccs2)c1,,inactive: -4.87%
COc1ccc(S(=O)(=O)N2CCN(C(C)C(=O)Nc3ccc(C(C)C)cc3)CC2)cc1 (centres undefined),"inconclusive: 10 µM [inhibitor, partial curve]",
Cc1ccc(C)c(CN2C(=O)C(C)Oc3ccc(C)cc32)c1 (centres undefined),"inconclusive: 10 µM [inhibitor, partial curve]",
CCN(CC)C(=O)[C@H]1C[C@H](CC(=O)NCc2cccc(C(F)(F)F)c2)C(=O)N2CCc3c([nH]c4ccc(Cl)cc34)[C@]12C,"inconclusive: 11.2 µM [inhibitor, single point]",
CCCCC1(Cc2ccc(OC)c([N+](=O)[O-])c2)C(=O)N(c2ccccc2)N(c2ccccc2)C1=O,"inconclusive: 12.6 µM [inhibitor, partial curve]",
O=C(Nc1ccccc1-c1nc2ccccc2[nH]1)c1sc2ccccc2c1Cl,,inactive: 2.39%
CC1Cc2ccccc2N1C(=O)CSc1nnc(-c2ccc(S(=O)(=O)N3CCCC3)cc2)o1 (centres undefined),"inconclusive: 8.91 µM [inhibitor, partial curve]",
Cc1nn(Cc2c(Cl)cccc2Cl)c(C)c1NC(=O)c1cc(C(C)C)on1,"inconclusive: 7.94 µM [inhibitor, partial curve]",
Nc1nc(SCC(=O)Nc2cccc(Oc3ccccc3)c2)n[nH]1,"inconclusive: 3.55 µM [inhibitor, full curve, poor fit]",
Cc1nc2oc3c(NCc4ccccc4)ncnc3c2c2c1COC(C)(C)C2,,inactive: -29.7%
COc1cccc(NC(=O)CN(C)C(=O)c2cc(S(=O)(=O)N3CCCCCC3)ccc2OC)c1,,inactive: 0.755%
Nc1c(C(=O)C2CC2)sc2nc3c(cc12)CCC3,,inactive: -12.1%
CCc1ccc2nc(SCC(=O)N(CC)CC)c(C#N)cc2c1,"inconclusive: 11.2 µM [inhibitor, partial curve]",
COC(=O)c1ccc(OC)c(CSc2nnc(-c3ccc(C)cc3)o2)c1,,inactive: -5.16%
Fc1ccc(CSc2nnc3ccc(-c4ccncc4)nn23)cc1,,inactive: 9.77%

SMILES,Potency,"activity change, negative = inhibition"
Cc1c(NC(=O)c2ccc(C(C)(C)C)cc2)cccc1[N+](=O)[O-],"inconclusive: 25.1 µM [inhibitor, single point]",
O=C(Nc1ccc2nsnc2c1)c1cccs1,,inactive: -15.9%
OC(CN1CCCCC1)Cn1c2ccccc2c2cc(Br)ccc21 (centres undefined),"inconclusive: 31.6 µM [inhibitor, single point]",
c1ccc(-c2cnn3c(-c4ccccc4)c(-c4ccccc4)nc3n2)cc1,"inconclusive: 5.62 µM [inhibitor, full curve]",
CC(C)N(Cc1ccccc1)C(=O)CN1C(=O)NC(Cc2ccccc2)(c2ccccc2)C1=O (centres undefined),,inactive: -11.8%
COc1ccc(/C=C2\Sc3ccc(C(=O)N4CCOCC4)cc3N(C)C2=O)cc1,,inactive: -20.7%
Cc1ccc(CNC(=O)C(=O)NCCC2CCCCN2S(=O)(=O)c2cccs2)cc1 (centres undefined),"inconclusive: 17.8 µM [inhibitor, single point]",
Cc1ccc2c(C(=O)CN3CCSCC3)c(C)[nH]c2c1,"inconclusive: 6.31 µM [inhibitor, full curve]",
CCOC(=O)c1c(-c2ccc(C)cc2)cn2ccccc12,active: 10 µM,
COc1cc(/C=C/C(=O)OCc2cn3cc(Cl)ccc3n2)ccc1O,"inconclusive: 11.2 µM [inhibitor, partial curve]",
CCSc1ncc(Cl)c(C(=O)N(Cc2ccc(N(C)C)cc2)C2CCS(=O)(=O)C2)n1 (centres undefined),,inactive: -11.8%
Oc1ccccc1C=NN=C1c2ccccc2-c2ccccc21,active: 8.91 µM,
CCOc1ncccc1C(=O)OCc1ccc(Cl)cc1,,inactive: -6.64%
O=C(Nc1cc(Cl)ccc1N1CCOCC1)c1cnccn1,"inconclusive: 31.6 µM [inhibitor, single point]",
COc1ccc(CCNC(=O)COc2ccc(S(=O)(=O)NC3CCCCC3)cc2Cl)cc1OC,"inconclusive: 25.1 µM [inhibitor, single point]",
COC(=O)c1cc(OC)c(OC)cc1NC(=O)CCc1ccc(C)o1,"inconclusive: 1 µM [inhibitor, full curve]",
COc1ccc2c3c1O[C@H]1C[C@@H](O)C=C[C@@]31CCN(C)C2,"inconclusive: 12.6 µM [inhibitor, single point]",
COc1ccc(NC(=O)c2nc[nH]c2C(=O)N2CCN(c3ccccc3)CC2)cc1,,inactive: 3.87%
COc1cccc(-c2cc(C(=O)Nc3ccncc3)c3ccccc3n2)c1,"inconclusive: 31.6 µM [inhibitor, single point]",
CCN(CC)S(=O)(=O)c1cc(NC(=O)CNc2cccc(S(=O)(=O)N3CCOCC3)c2)ccc1C,active: 5.62 µM,
CCC(C(=O)Nc1cc(OC)c(NC(=O)c2ccccc2)cc1OC)c1ccccc1 (centres undefined),active: 11.2 µM,
CCCOc1ccc(C(=O)N2CCN(c3ccc(NC(=O)CC)cc3Cl)CC2)cc1,"inconclusive: 31.6 µM [inhibitor, single point]",
Cc1ccc(Cn2c(=N)n(CC(O)COc3ccccc3)c3ccccc32)cc1 (centres undefined),"inconclusive: 10 µM [inhibitor, partial curve]",

SMILES,Potency,"activity change, negative = inhibition"
Cc1cc(=O)oc2cc(OCC3CC(c4ccccc4)=NO3)ccc12 (centres undefined),"inconclusive: 2.51 µM [inhibitor, full curve, poor fit]",
CCN(CCNCC(O)COCc1ccc(Cl)cc1)c1cccc(C)c1 (centres undefined),active: 15.8 µM,
O=C(C[C@H]1C/C=C\C[C@@H](NC(=O)OCC2c3ccccc3-c3ccccc32)C(=O)O[C@@H](c2ccccc2)CNC1=O)N[C@H](CO)Cc1ccccc1,"inconclusive: 11.2 µM [inhibitor, partial curve]",
Cc1cccc(N(C(=O)c2snc(C(N)=O)c2N)C(C(=O)NC2CCCC2)c2ccco2)c1 (centres undefined),"inconclusive: 31.6 µM [inhibitor, single point]",
CC(C)(C)C1CCc2sc(C(=O)NNC(=O)CCl)cc2C1 (centres undefined),"inconclusive: 31.6 µM [inhibitor, single point]",
Cc1cc(OC(C)C)c2c(-c3ccccc3)cc(=O)oc2c1,"inconclusive: 3.98 µM [inhibitor, partial curve]",
CN(C)c1ccccc1C(=O)N1CCCC(C(=O)c2ccc3ccccc3c2)C1 (centres undefined),"inconclusive: 31.6 µM [inhibitor, single point]",
CC(=O)Nc1ccc(NC(=O)CSc2ccc(-c3ccc4c(c3)OCO4)nn2)cc1,"inconclusive: 10 µM [inhibitor, partial curve]",
CCCNC(=S)N1CCN(c2nc(-c3ccc(C)cc3)cs2)CC1,active: 12.6 µM,
O=CNC1CCCc2c1[nH]c1ccc(Cl)cc21 (centres undefined),active: 7.08 µM,
C/C(=N\N=C(/C)c1cccc(N)c1)c1cccc(N)c1,,inactive: 13.1%
COc1cccc(N2[C@@H](CC(C)=O)c3ccc(/C=C/C(C)=O)cc3S2(=O)=O)c1,"inconclusive: 31.6 µM [inhibitor, single point]",
COc1ccc(C(=O)CSc2nc3ncccc3[nH]2)cc1OC,"inconclusive: 31.6 µM [inhibitor, single point]",
Cn1c(N)c(C(=O)COC(=O)c2cc(-c3ccco3)nc3ccccc23)c(=O)n(C)c1=O,"inconclusive: 2.51 µM [inhibitor, partial curve] and inconclusive: 22.4 µM [inhibitor, partial curve]",
Cc1cc(C(=O)N/N=C\c2cc(C(C)(C)C)ccc2O)n[nH]1,"inconclusive: 31.6 µM [inhibitor, single point]",
Cc1cccc2sc(N(CCN(C)C)C(=O)c3cc(Cl)sc3Cl)nc12,,inactive: 5.29%
CS(=O)(=O)N(CCC#N)Cc1ccco1,,inactive: 4.57%
CCOc1ccccc1NC(=S)NCCc1ccccc1,"inconclusive: 22.4 µM [inhibitor, single point]",
Cc1ccc(C(C(=O)NCc2ccc(F)cc2)N(Cc2ccco2)C(=O)c2snc(C(N)=O)c2N)o1 (centres undefined),"inconclusive: 31.6 µM [inhibitor, single point]",
C[C@H](CO)N1C[C@H](C)[C@@H](CN(C)CC2CCCCC2)Oc2ccc(NC(=O)CCN3CCOCC3)cc2C1=O,,inactive: 33.2%
Cc1cc2nc(C)n(CCCNC(=O)Nc3cccc4ccccc34)c2cc1C,"inconclusive: 31.6 µM [inhibitor, partial curve, poor fit]",
CCC1Sc2ccccc2N(CC(=O)NCc2ccccc2OC)C1=O (centres undefined),"inconclusive: 6.31 µM [inhibitor, partial curve]",
CC(C)(C)OC(=O)n1cc(CCO)c2ccccc21,"inconclusive: 31.6 µM [inhibitor, single point]",
